Laboratory results from ChEMBL document CHEMBL4888484, “Replenishing the malaria drug discovery pipeline: Screening and hit evaluation of the MMV Hit Generation Library 1 (HGL1) against asexual blood stage Plasmodium falciparum ,using a nano luciferase reporter read-out” (2022).
The whole screen tested about 150,000 compounds, of which about 540 (0.36%) showed an effect of 50% or more. The list shows a part of the results.

Test system: Plasmodium falciparum
Test: Primary screen in NF54 nanoGlo assay, in single point, at 2uM, 72h; a lower Z score goes with more inhibition
Assay type: functional, Erythrocyte
Details: timepoint 72 hour

Question: How did the “% Inhibition” value turn out when `CCCc1nnc(NC(=O)CCC(=O)N2CCN(C(=O)c3ccco3)CC2)s1` was run?
Answer: -6%

Question: And the Z score?
Answer: 0.73

Question: What does the source list for `O=C(Nc1nc2c(s1)CNCC2)c1ccsc1`?
Answer: % Inhibition: 11%; Z score: -1.41

Question: `Cc1cc(NC(=O)c2cccc(F)c2Cl)nnc1C` was tested. Which “% Inhibition” value did it give?
Answer: 1%

Question: And the Z score?
Answer: -0.09

Question: Which “% Inhibition” value does the source give for `O=C(c1cnn2ccccc12)N1CC(c2ccccc2F)C1` here?
Answer: -4%

Question: What about the Z score of the same compound?
Answer: 0.55

Question: Which results are given for `Cc1nc(CN(CCN2CCOCC2)c2ccccc2)oc1C`?
Answer: % Inhibition: -3%; Z score: 0.49

Question: For `CC(C)c1ccc(/N=C(\NCc2cccnc2)NC(=O)c2cccc(N(C)C)c2)cc1`, which “% Inhibition” value is on record?
Answer: 1%

Question: And the Z score?
Answer: -0.12

Question: Which results are given for `CCn1ncc(NC(=O)N[C@H]2CCCC23CCCCC3)c1C(F)(F)F`?
Answer: % Inhibition: 6%; Z score: -0.68

Question: Which “% Inhibition” value does the source give for `O=C(Cn1cnnn1)N1CCCCCC1CC(O)c1ccccc1` (stereo not given) here?
Answer: -1%

Question: And the Z score?
Answer: 0.22

Question: With `CCn1ncnc1CN(C)[C@@H](C)c1ccccn1` as the compound, how does the “% Inhibition” value read?
Answer: -2%

Question: And the Z score?
Answer: 0.29

Question: Which “% Inhibition” value does the source give for `CC(C)(C)OC(=O)N1CCN(c2ccc3c(c2)CCC(=O)N3)CC1` here?
Answer: -9%

Question: What about the Z score of the same compound?
Answer: 1.17

Question: Which “% Inhibition” value does the source give for `CC(C(=O)NCc1ccccc1)N1CCCCC1Cn1cccn1` (stereo not given) here?
Answer: -4%

Question: What about the Z score of the same compound?
Answer: 0.41

Question: How did the “% Inhibition” value turn out when `COc1cccc2c1CCc1c-2n[nH]c1C(=O)NCCc1ccco1` was run?
Answer: -18%

Question: And the Z score?
Answer: 3.01

Question: Which results are given for `CCS(=O)(=O)N1CCC[C@H]1C(=O)N1CCc2ccccc21`?
Answer: % Inhibition: -19%; Z score: 3.65

Question: With `CC[C@@H](C(=O)N1CC(n2ccnn2)C1)c1ccccc1` as the compound, how does the “% Inhibition” value read?
Answer: -10%

Question: And the Z score?
Answer: 1.09

Question: Which “% Inhibition” value does the source give for `CC(C)(C)S(=O)(=O)[C@H]1CCN(S(=O)(=O)c2ccccc2C(F)(F)F)C1` here?
Answer: 5%

Question: What about the Z score of the same compound?
Answer: -0.81

Question: `Clc1cccc(-c2nc(-c3ccccc3)c(-c3ccc(-c4ccccc4)cc3)[nH]2)c1` was tested. Which “% Inhibition” value did it give?
Answer: 1%

Question: And the Z score?
Answer: -0.17

Question: Which results are given for `O=c1ccncn1CC1CCN(CCc2ccc3c(c2)CCO3)CC1`?
Answer: % Inhibition: -6%; Z score: 0.91

Question: For `CN(C(=O)c1ccccc1)C1CC2CCC(C1)N2C(=O)c1csc(=O)[nH]1` (stereo not given), which “% Inhibition” value is on record?
Answer: -1%

Question: What about the Z score of the same compound?
Answer: 0.2

Question: What does the source list for `CC(C)c1nccc(CN2CC[C@@H](CO)[C@@H](O)C2)n1`?
Answer: % Inhibition: -8%; Z score: 0.88

Question: What does the source list for `CC1CCC(C(=O)OC(C)(C)C)CN1C(=O)c1ocnc1C1CC1` (stereo not given)?
Answer: % Inhibition: -15%; Z score: 1.69

Question: How did the “% Inhibition” value turn out when `CN(C(=O)c1cnc(O[C@H]2CCOC2)c(Cl)c1)c1ccccc1` was run?
Answer: -8%

Question: And the Z score?
Answer: 1.5

Question: For `O=C(NS(=O)(=O)c1ccc2c(c1)OCCCO2)c1cc2c(s1)CCC2`, which “% Inhibition” value is on record?
Answer: 43%

Question: What about the Z score of the same compound?
Answer: -6.18

Question: For `Cc1cc(C(=O)N2CCC(N3CCc4cc(F)ccc43)CC2)cc(O)n1`, which “% Inhibition” value is on record?
Answer: 0%

Question: And the Z score?
Answer: 0.05

Question: With `CC(=O)N[C@@H](CC(C)C)C(=O)Nc1cc(C)[nH]c(=O)n1` as the compound, how does the “% Inhibition” value read?
Answer: 8%

Question: And the Z score?
Answer: -1.08

Question: With `CCN1CCN(C2CCN(Cc3nc(-c4ccc(C(=O)OC)cc4)no3)CC2)CC1` as the compound, how does the “% Inhibition” value read?
Answer: -5%

Question: And the Z score?
Answer: 0.78

Question: For `Fc1ccc(Oc2ncccc2CNC2CCOCC2)cc1F`, which “% Inhibition” value is on record?
Answer: -1%

Question: And the Z score?
Answer: 0.23

Question: For `CCCn1c(=O)sc2cc(NC(=O)Cc3ccc(OC)cc3)ccc21`, which “% Inhibition” value is on record?
Answer: 11%

Question: What about the Z score of the same compound?
Answer: -1.39

Question: What does the source list for `Cc1ccc(S(=O)(=O)/N=C(\CN2CCCC2)N2CCCC2)cc1`?
Answer: % Inhibition: 0%; Z score: 0.03

Question: How did the “% Inhibition” value turn out when `CC1CC(C(=O)Nc2[nH]c(=O)ncc2F)CC(C)(C)C1` (stereo not given) was run?
Answer: 92%

Question: What about the Z score of the same compound?
Answer: -13.24

Question: How did the “% Inhibition” value turn out when `O=C(N1CCN(c2nccc(-c3ccc4c(c3)OCO4)n2)CC1)C(F)(F)C(F)F` was run?
Answer: -10%

Question: And the Z score?
Answer: 1.47

Question: How did the “% Inhibition” value turn out when `CC[C@H](N)C(=O)Nc1nn(-c2ccc(F)cc2)c2cccc(Oc3cccnc3)c12` was run?
Answer: -5%

Question: And the Z score?
Answer: 0.65

Question: What does the source list for `O=C(NCc1ccncc1)c1cn2c(n1)CC[C@H](c1cc(C(F)(F)F)cc(C(F)(F)F)c1)C2`?
Answer: % Inhibition: -11%; Z score: 1.76

Question: For `O=C(CN1CCCS1(=O)=O)NCCc1cnc2ccccc2c1`, which “% Inhibition” value is on record?
Answer: -10%

Question: What about the Z score of the same compound?
Answer: 1.48

Question: Which “% Inhibition” value does the source give for `COc1cccc(C(=O)N2CCCCCCC2)n1` here?
Answer: -7%

Question: What about the Z score of the same compound?
Answer: 1.04

Question: Which results are given for `O=S(=O)(Nc1nnc2ccccn12)c1cc(F)c(F)c(F)c1`?
Answer: % Inhibition: -16%; Z score: 1.83

Question: With `Cc1ccc(-c2nc(C(=O)N(C)CCCc3cc(-c4cccc(F)c4)n(C)n3)cs2)o1` as the compound, how does the “% Inhibition” value read?
Answer: -9%

Question: What about the Z score of the same compound?
Answer: 0.81

Question: How did the “% Inhibition” value turn out when `c1ccc(-c2noc(Cn3cnc4ccccc43)n2)nc1` was run?
Answer: -6%

Question: What about the Z score of the same compound?
Answer: 0.74

Question: How did the “% Inhibition” value turn out when `Cc1nc(-c2cc(C)on2)n(CCc2ccccc2)n1` was run?
Answer: -11%

Question: And the Z score?
Answer: 1.44

Question: What does the source list for `CCOC(=O)N1CCN(C(=O)c2ccc3nsnc3c2)CC1`?
Answer: % Inhibition: -4%; Z score: 0.56

Question: What does the source list for `CN(Cc1nnc2n1CCC2)C(=O)c1ccc2c(c1)CCCC2`?
Answer: % Inhibition: -22%; Z score: 2.23

Question: Which results are given for `CN(CCCC1CCCC1)c1cc([C@H]2CCOC2)nc(N2CC(O)C2)n1`?
Answer: % Inhibition: -9%; Z score: 0.96

Question: Which “% Inhibition” value does the source give for `CC(C)(C)OC(=O)N[C@@H]1C=C[C@H](CO)C1` here?
Answer: -7%

Question: What about the Z score of the same compound?
Answer: 1.16

Question: What does the source list for `CCC1(CC)CN(C(=O)Cc2nnc(N)s2)CCO1`?
Answer: % Inhibition: -3%; Z score: 0.59

Question: Which results are given for `CCOCCc1nc(CC(N)=O)nn1-c1cccnc1`?
Answer: % Inhibition: -10%; Z score: 1.73

Question: `Cc1cccc([C@H](C)NCCCCn2ccnc2C)c1` was tested. Which “% Inhibition” value did it give?
Answer: -4%

Question: And the Z score?
Answer: 0.35

Question: Which results are given for `CN1CCN(C(=O)NC2CCC(F)C2)CC1` (stereo not given)?
Answer: % Inhibition: -7%; Z score: 0.74

Question: For `Cc1nccn1Cc1nnc([C@H]2CCCN(c3ccncc3F)C2)n1C`, which “% Inhibition” value is on record?
Answer: -20%

Question: And the Z score?
Answer: 2.13

Question: For `COc1ccccc1CNC(=O)Cn1nc2c(N3CCC(C)CC3)nccn2c1=O`, which “% Inhibition” value is on record?
Answer: -20%

Question: And the Z score?
Answer: 1.94

Question: What does the source list for `Cc1c(C#N)c(NC(=O)CNC(C)c2cccs2)n(CC2CCCO2)c1C` (stereo not given)?
Answer: % Inhibition: -5%; Z score: 0.4

Question: Which “% Inhibition” value does the source give for `Cc1ccc2nc(CNc3ccccc3)cc(=O)n2c1` here?
Answer: -12%

Question: And the Z score?
Answer: 1.17

Question: How did the “% Inhibition” value turn out when `CC(C)Oc1ccccc1CN1CC(n2cc([C@H](C)O)nn2)C1` was run?
Answer: -6%

Question: And the Z score?
Answer: 0.82

Question: How did the “% Inhibition” value turn out when `O=C(Nc1ccccc1CN1C(=O)CCC1=O)c1cc2c(s1)CCCCC2` was run?
Answer: -10%

Question: And the Z score?
Answer: 1.35

Question: How did the “% Inhibition” value turn out when `CNc1snc(C)c1C(=O)N1CCC2(CC1)NC(=O)NC2=O` was run?
Answer: -5%

Question: What about the Z score of the same compound?
Answer: 0.82

Question: With `C[C@H]1[C@@H](C(=O)OC(C)(C)C)CCCN1C(=O)c1cccnc1` as the compound, how does the “% Inhibition” value read?
Answer: -5%

Question: What about the Z score of the same compound?
Answer: 0.65

Question: Which “% Inhibition” value does the source give for `O=C(NC[C@@]12CCCC=C1N(Cc1ccccc1)C(=O)CC2)c1ccncc1` here?
Answer: 8%

Question: What about the Z score of the same compound?
Answer: -1.21
